Source: PubChem BioAssay AID588689 (Southern Research Specialized Biocontainment Screening …, 2011)
The campaign covered roughly 340,000 compounds. About 1,000 (0.29%) were called active. The shares of active, inactive and inconclusive entries below differ from those in the screen. No stated cut-off is given here; in the data, inconclusive means inhibition above about 29% without an active follow-up result; inactive means below that.

target: Genome polyprotein (Dengue virus type 2 (strain 16681-PDK53)) (UniProt P29991); assay: Dengue-2 NS5 methyltransferase inhibitors, primary screen, biochemical, confirmation dose response (AID 588689); conditions: Dengue-2 NS5 methyltransferase capping enzyme assay, at 25 µM, stronger effect = higher value

Compound | inhibition
Cc1ccccc1C1C(C#N)=C2N=C(N)c3c(sc4c3CCCCC4)N2C2=C1C(=O)CCC2 (stereo not given) | inconclusive: 31.4%
O=C(O)c1ccc(Cl)c(S(=O)(=O)Nc2ccccc2Cc2ccccc2)c1 | inactive: -0.83%
COc1cc(NC(=S)NN2CCN(C)CC2)cc(OC)c1 | inactive: -3.9%
Cc1cccc(N2C(=O)CC(N3CCOCC3)C2=O)c1 (stereo not given) | inactive: 0%
COC(=O)c1cc2n3ccccc3c(C)c(-c3ccccc3)c-2c1C(=O)OC | inconclusive: 42.1%
COc1ccc(-c2onc3ccc(Br)cc23)cc1 | inconclusive: 58.7%
COC(=O)C1=C(C)NC(=O)/C1=C\N(C)C | inconclusive: 45.9%
Cc1ccc2[nH]c(C(=O)O)c(NC(=O)CN3CCN(c4cccc(C)c4C)CC3)c2c1 | inconclusive: 35.2%
CC(=O)N/N=C/c1cc(C(C)C)cc(/C=N/NC(C)=O)c1O | inconclusive: 68.5%
COc1ccc(OC)c(/C=C2\SC(=S)N(NS(=O)(=O)c3ccc(C)cc3)C2=O)c1 | inactive: 40.5%
Cc1ccc(NC2=CC(=O)CCC2)cc1C | inconclusive: 28.7%
Cc1cc(C)c(NC(=O)CSCc2nc3sc(C)c(C)c3c(=O)[nH]2)c(Cl)c1 | inconclusive: 29.8%
CCCNC(=O)N1C2=NC(C(=O)OC)=C(C(=O)OC)[C@@H]3N(Cc4ccccc4)c4ccccc4[C@]23C[C@H]1CO | inactive: -2.73%
O=C1c2ccccc2-c2onc3ccc(NCc4ccco4)c1c23 | inconclusive: 179%
N#Cc1ccc2ccn(CC(=O)NCc3ccco3)c2c1 | inactive: -5.46%
C=CCNC(=O)/C(C#N)=C/c1ccccc1[N+](=O)[O-] | inconclusive: 53.4%
COc1cccc(/C=C2\SC(=S)N(CCCC(=O)NC3=NCCS3)C2=O)c1 | inconclusive: 28.8%
Cn1c(=O)c(NC2CCCCC2)c2c3c(cccc31)C(=O)c1ccccc1-2 | inconclusive: 153%
O=C(O)c1ccc2c(c1)C(=O)N(Cc1ccco1)C2=O | inactive: 5.56%
O=C(CN1C(=O)/C(=C/c2cccc(Br)c2)SC1=S)Nc1cccnc1 | inconclusive: 62.1%
CCc1ccccc1N(CC(=O)OC)S(C)(=O)=O | inactive: 3.12%
O=C(CN1CCC(c2nc3ccccc3s2)CC1)N1CCCCC1 | inactive: -11.7%
CCOC(=O)CN1C=C(c2ccc3ccccc3n2)C(C[N+](=O)[O-])c2ccccc21 (stereo not given) | inconclusive: 71.3%
CCOc1cc(/C=C2\SC(=S)N(C(C(=O)O)c3ccccc3)C2=O)ccc1O (stereo not given) | inconclusive: 29.6%
O=C(O)CSc1ncnc2c1sc1nc(-c3ccccc3)c3c(c12)CCC3 | inactive: 22.7%
